Results as given in the supplement of paper PMC10126150.
Sequences with one replicate were seen in a single cluster, so their values are uncertain.

test system: ATP; assay: switch fluorescence ratio, 500 uM ATP over buffer (Cy3 cluster intensity, sum of 5 cycles each) (fold (ratio)); higher = stronger signal-on switching upon ATP binding; sequences stand for … in TCGTCGGCAGCGTCAGATGTGTATAAGAGACAGTTTTTTTTTTTTTTTTTTTTTTTTT…TC; settings: aptamer strand: ATP DNA aptamer (quencher-CACCTGGGGGAGTATTGCGGAGGAAGG + anchor), 100 nM annealed; ATP concentration: 500 uM; one replicate
Outline: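 Imaging in selection buffer was followed by imaging after 15 min with 500 uM ATP at 22 °C, for Cy3-labelled switching-strand clusters annealed to 100 nM quencher-labelled ATP aptamer on a modified Illumina MiSeq flow-cell. Five of these buffer/ATP cycles ran, separated by NaOH stripping and re-annealing. The fluorescence ratio per cluster is summed target-cycle over summed buffer-cycle Cy3 intensity, averaged per switch-domain sequence; clusters outside 100-1000 RFU were removed.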
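Also: ATP exposure 15 min at 22 °C before imaging.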

Row | Sequence | switch fluorescence ratio
1 | AGGTTATTTC | 0.989
2 | AGGTTCGTCA | 1.02
3 | AGGTTCTAG | 0.972
4 | AGGTTGCCTC | 1.04
5 | AGGTTGGAAA | 0.961
6 | AGGTTTCAGC | 0.963
7 | AGGTTTCATA | 0.981
8 | AGGTTTCGAA | 0.969
9 | AGGTTTGGAG | 1.01
10 | AGTAAATGAG | 1.05
11 | AGTAAATGCC | 0.981
12 | AGTAACATCT | 1.04
13 | AGTACGATGC | 1.06
14 | AGTACTTCTG | 0.986
15 | AGTAGAAACG | 0.979
16 | AGTAGACACG | 0.936
17 | AGTAGCGAAT | 1.08
18 | AGTAGCTGGG | 0.97
19 | AGTAGGAAAA | 0.993
20 | AGTAGGTCGA | 1.01
21 | AGTAGGTGTC | 1.07
22 | AGTAGTAGGC | 1
23 | AGTAGTGATA | 0.962
24 | AGTATACCCC | 1.09
25 | AGTATATCCT | 1.08
26 | AGTATCAACG | 0.994

Row | Sequence | switch fluorescence ratio
27 | AGTATGATCT | 0.955
28 | AGTATGGAGG | 1.01
29 | AGTATGTAC | 1.06
30 | AGTATTCT | 1.01
31 | AGTCAAATAG | 0.976
32 | AGTCACCTTA | 0.971
33 | AGTCAGTACT | 1.16
34 | AGTCATAAAC | 1
35 | AGTCATAGAC | 0.986
36 | AGTCATAGTT | 0.966
37 | AGTCATATGA | 0.953
38 | AGTCCACTC | 1.05
39 | AGTCCAGGCG | 1.03
40 | AGTCCATTGA | 1.02
41 | AGTCCCCCAA | 1.63
42 | AGTCCGCTTT | 1.78
43 | AGTCCTACGA | 1.04
44 | AGTCCTTATG | 0.954
45 | AGTCGCAGCA | 1.06
46 | AGTCGCGAGG | 0.995
47 | AGTCGTTTTG | 0.951
48 | AGTCTATGAA | 0.975
49 | AGTCTCATGC | 0.955
50 | AGTCTCGCGT | 0.989
51 | AGTCTCTTGT | 1.02
52 | AGTCTGTACC | 1.04

Row | Sequence | switch fluorescence ratio
53 | AGTCTTGA | 1.02
54 | AGTCTTTCGT | 1
55 | AGTGAACCG | 1.06
56 | AGTGACAGG | 0.989
57 | AGTGACATAC | 1.44
58 | AGTGACCGCT | 1.05
59 | AGTGACTAA | 1
60 | AGTGACTGTT | 0.954
61 | AGTGAGACTA | 0.989
62 | AGTGAGCAAG | 1
63 | AGTGAGCGTT | 1.04
64 | AGTGCAAACC | 1.01
65 | AGTGCATGCG | 1.03
66 | AGTGCCCAAG | 1.04
67 | AGTGCGACGT | 1.02
68 | AGTGGATCTA | 0.999
69 | AGTGGCATGG | 1.04
70 | AGTGGTACGC | 0.98
71 | AGTGGTCCGA | 0.982
72 | AGTGGTCTCG | 0.966
73 | AGTGGTGTG | 1
74 | AGTGTCACTC | 1.06
75 | AGTGTGTGAC | 0.962
76 | AGTGTTGCTC | 0.994
77 | AGTTAAAAGG | 1.06
78 | AGTTAAATAG | 1

Row | Sequence | switch fluorescence ratio
79 | AGTTAATACC | 1.04
80 | AGTTACCTGC | 0.974
81 | AGTTAGTGAT | 0.981
82 | AGTTAGTGC | 1.03
83 | AGTTATCTGA | 0.991
84 | AGTTCATCTC | 0.986
85 | AGTTCCAGCA | 1.13
86 | AGTTCCTGGT | 0.994
87 | AGTTCGAAGT | 1.02
88 | AGTTCGGTT | 1.02
89 | AGTTCTACAC | 0.964
90 | AGTTCTGCC | 1.07
91 | AGTTCTGCCC | 0.927
92 | AGTTCTGGCA | 0.954
93 | AGTTGGAAGC | 1.01
94 | AGTTGGCATG | 0.994
95 | AGTTGGTAAG | 0.954
96 | AGTTGTAGGC | 0.999
97 | AGTTGTATGA | 1.02
98 | AGTTGTTGTC | 0.963
99 | AGTTTACCTC | 1.02
100 | AGTTTAGGCA | 0.998
101 | AGTTTATGTT | 0.946
102 | AGTTTCCCGG | 1
103 | AGTTTCGCCC | 1.02
104 | AGTTTCGGTG | 0.98

Row | Sequence | switch fluorescence ratio
105 | AGTTTGGGAT | 0.982
106 | AGTTTTACTC | 1.11
107 | AGTTTTCGCT | 0.973
108 | ATAAAAAGTG | 1.08
109 | ATAAAAATGA | 0.99
110 | ATAAAAGCCT | 1.02
111 | ATAAAATGTG | 0.996
112 | ATAAACGCG | 0.987
113 | ATAAACTAAA | 0.97
114 | ATAAATGGTT | 1.01
115 | ATAAATGTAA | 0.971
116 | ATAAATGTCG | 0.929
117 | ATAACCGACT | 1.18
118 | ATAACGCGTA | 0.997
119 | ATAACGGTTG | 0.99
120 | ATAACGTGTT | 0.982
121 | ATAAGAAAAT | 0.953
122 | ATAAGAAGCA | 0.944
123 | ATAAGATCTA | 0.987
124 | ATAAGCCCAG | 1.06
125 | ATAAGCGACC | 1.16
126 | ATAAGCGGGT | 0.943
127 | ATAAGCTATA | 0.996
128 | ATAAGGCAAT | 1.03
129 | ATAAGGCAC | 1.04
130 | ATAAGTCCCC | 1.09

Row | Sequence | switch fluorescence ratio
131 | ATAAGTTCAC | 1.03
132 | ATAAGTTGTC | 1.01
133 | ATAATAATCC | 0.982
134 | ATAATAGGGG | 0.948
135 | ATAATAT | 1.04
136 | ATAATCCTTT | 0.993
137 | ATACAACTGT | 1.09
138 | ATACACCTGC | 1.09
139 | ATACAGGGGT | 1.15
140 | ATACCAATAA | 1.17
141 | ATACCATGAA | 0.955
142 | ATACCCAAAC | 1.13
143 | ATACCCCTGT | 1.08
144 | ATACCCGGGA | 1.08
145 | ATACCCGTTG | 1.05
146 | ATACCCTAT | 1.01
147 | ATACCGAGCT | 1.12
148 | ATACCGGGGA | 0.958
149 | ATACCGGTGG | 1.27
150 | ATACCTAGCG | 1.04
151 | ATACCTCGCC | 1.63
152 | ATACGAGAT | 1.04
153 | ATACGAGCAA | 3.28
154 | ATACGCAT | 1.23
155 | ATACGTATCG | 1.07
156 | ATACGTCCTG | 1.05

Row | Sequence | switch fluorescence ratio
157 | ATACGTGTCG | 1.02
158 | ATACGTTCT | 0.997
159 | ATACGTTGTG | 0.988
160 | ATACTATCAC | 1.15
161 | ATACTCATGA | 1.05
162 | ATACTGGAGG | 1.01
163 | ATACTGGGAG | 0.947
164 | ATAGAACTGG | 0.928
165 | ATAGACAGCC | 1.09
166 | ATAGACTAAT | 0.95
167 | ATAGAGCGCG | 1.05
168 | ATAGAGTATA | 0.964
169 | ATAGCATGGG | 0.993
170 | ATAGCATTGA | 1.05
171 | ATAGCCGCTT | 1.04
172 | ATAGGAGGGG | 0.998
173 | ATAGGATAGC | 0.953
174 | ATAGGATTCC | 0.992
175 | ATAGGCAGC | 1.02
176 | ATAGGCGAGG | 1.01
177 | ATAGGGCGTT | 1.01
178 | ATAGGGCTTC | 0.953
179 | ATAGGGTCAT | 1.02
180 | ATAGGTATTT | 1.01
181 | ATAGGTGCCA | 1.03
182 | ATAGGTTCG | 1.03

Row | Sequence | switch fluorescence ratio
183 | ATAGGTTGCA | 0.97
184 | ATAGTATAGT | 0.975
185 | ATAGTATCCC | 1.01
186 | ATAGTATGGC | 1.02
187 | ATAGTCAAAT | 0.955
188 | ATAGTCTCAG | 1.05
189 | ATAGTGTCGA | 1.01
190 | ATAGTGTTGT | 0.922
191 | ATAGTTCTGT | 1.02
192 | ATATAACGGA | 1.01
193 | ATATACGCGG | 1.02
194 | ATATAGGCAG | 0.994
195 | ATATAGTGCG | 0.978
196 | ATATATACAG | 1.05
197 | ATATATACGC | 1.04
198 | ATATATTGCA | 1.01
199 | ATATCAACCA | 0.998
200 | ATATCACCAT | 1.03
201 | ATATCACGGG | 1.1
